In article PMC6172241, “A multisubstrate reductase from Plantago major: structure-function in the short chain reductase superfamily” (Scientific Reports, 2018):

Biological target: PmMOR (P. major multisubstrate oxido-reductase) (Plantago major, UniProt D6N9X1, V150M)
Assay: crystal structure
Settings: ternary complex with NADP+, 2.56 Å; ligand density of poor quality

SMILES: CC(=O)[C@H]1CC[C@H]2[C@@H]3CCC4=CC(=O)CC[C@]4(C)[C@H]3CC[C@]12C [progesterone]
- crystal structure: we co-crystallized PmMOR^V150M with progesterone and NADP^+
